PubChem BioAssay AID624417 (National Center for Advancing Translational Sciences (NCATS), 2012)
Screen size: about 410,000 compounds; about 6,400 (1.6%) were called active. The shares of active, inactive and inconclusive entries below differ from those in the screen. Calls come from the whole dose curve; as a rule, active = well fitted inhibition curve with a large enough effect; inconclusive = small, poorly fitted or top-dose-only effect; inactive = no such curve, though single readings can be large or run the other way. Potencies of inconclusive entries are doubtful fits and often do not repeat.

biological target: Glucagon-like peptide 1 receptor (Homo sapiens) (UniProt P43220); experiment: qHTS of GLP-1 Receptor Inverse Agonists (Inhibition Mode); conditions: HEK293 GLP-1R CRE-luciferase, luminescence, 24 h, GLP-1R form is constitutively active; activity change, negative = inhibition: at 38.3 µM (top of the series) unless noted; note: nearly all actives have a fitted effect of over 55% in size
UniProt P43220, sequence (P43220 whole entry, looked up): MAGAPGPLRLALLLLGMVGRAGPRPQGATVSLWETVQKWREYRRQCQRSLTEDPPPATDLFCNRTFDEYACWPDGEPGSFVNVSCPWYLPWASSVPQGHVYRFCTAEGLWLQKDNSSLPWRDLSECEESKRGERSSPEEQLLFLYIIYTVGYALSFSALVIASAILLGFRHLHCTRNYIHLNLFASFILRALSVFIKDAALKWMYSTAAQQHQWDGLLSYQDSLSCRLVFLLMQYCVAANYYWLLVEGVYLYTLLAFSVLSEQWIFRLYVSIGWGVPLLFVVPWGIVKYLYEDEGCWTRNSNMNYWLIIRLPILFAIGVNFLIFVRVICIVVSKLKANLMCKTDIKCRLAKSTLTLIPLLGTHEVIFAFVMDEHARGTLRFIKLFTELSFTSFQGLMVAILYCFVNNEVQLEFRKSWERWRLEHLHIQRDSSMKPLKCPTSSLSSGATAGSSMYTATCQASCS
Method in brief: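 HEK293 cells stably co-expressing a cAMP-responsive luciferase reporter and constitutively active GLP-1R were seeded, incubated 12 h, then exposed to compounds for 24 h at 37 C. Luminescence was read 12 min after detection reagent; inverse agonists lower signal.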
% is set by controls: 0 for no effect and ±100 for the full control effect; potency is the fitted concentration of half-maximal effect; tags give direction and shape of the fitted curve.

Activity change, negative = inhibition, inactive:
COc1ccc(CCNC(=O)Cn2nc(-c3ccc(Cl)cc3)ccc2=O)cc1OC 4.07%, O=C(O)c1ccc(Cl)c(S(=O)(=O)Nc2ccccc2C(=O)Nc2ccc(Cl)cc2)c1 -15.4%, CCOC(=O)Cc1csc(NC(=S)NC(=O)c2ccc(F)cc2)n1 0%, CC(=O)c1cccc(NCC(=O)c2ccc(C)c([N+](=O)[O-])c2)c1 -6.91%, O=C1NC2(CCOc3ccccc32)C(=O)N1CC(=O)N(Cc1ccccc1)C1CCS(=O)(=O)C1 (configuration not stated) 9.46%, Cc1noc(C)c1CSCC(=O)OCC(=O)N1CC(=O)Nc2ccccc21 4.33%, CC(=N\Nc1ccccc1)/C(=N/O)C(=O)Nc1ccccc1 -12%, O=C(NC1CCN(Cc2ccccc2)CC1)c1ccc(CS(=O)c2ccc(F)cc2)o1 (configuration not stated) -21.8%, CCn1c(CN2CCC(C)CC2)nc2cc(NC(=O)c3cccc([N+](=O)[O-])c3)ccc21 -35.4%, COC(=O)c1c(NC(=O)CCCOc2ccccc2C)sc2c1CCC2 0.735%, Cc1ccc(C(C)C)c(OCC(=O)Nc2ccc(-c3nc4ncccc4o3)cc2C)c1 -0.351%, CSc1ncc(C(=O)NCc2cccc(Br)c2)c(-c2ccccc2)n1 -18.8%

Potency, inconclusive:
COc1ccc(CN(C)CC2CCCN(CCc3ccc(F)cc3)C2)c(OC)c1OC (configuration not stated) 11.2 µM [inhibitor, partial curve, poor fit], CCOc1ccc(N2C=Nc3ccc(OCC)cc3C2)cc1 11.2 µM [inhibitor, single point], CCCN1CCC(=NNc2ccc(S(=O)(=O)N(CC)CC)cc2[N+](=O)[O-])CC1 5.62 µM [inhibitor, partial curve, poor fit], COc1ccc(/C=C2\CCCC3C2=NN(C(=O)CSc2ncn[nH]2)C3c2ccc(OC)cc2)cc1 (configuration not stated) 12.6 µM [inhibitor, single point], CCOC(=O)N1CCN(C(=O)CN(c2ccc(C)c(C)c2)S(=O)(=O)c2ccccc2)CC1 28.2 µM [inhibitor, single point], CN1CCN(CC(C)(C)NS(=O)(=O)c2ccc(Cl)cc2)CC1 2 µM [inhibitor, full curve, poor fit], CCOC(=O)c1ccc(NC(=O)C2CCCN(c3cnccn3)C2)cc1 (configuration not stated) 10 µM [inhibitor, partial curve, poor fit], CCCNC(=O)c1ccc(COc2ccc(C(C)(C)C)cc2)o1 7.08 µM [inhibitor, partial curve, poor fit], COc1cc(NC(=O)Cn2cc(S(=O)(=O)N3CCC(C)CC3)c3ccccc3c2=O)cc(OC)c1OC 22.4 µM [inhibitor, partial curve, poor fit], O=C(c1ccccc1)c1ccc(C(=O)N2CCN(c3ccccc3Cl)CC2)cc1 22.4 µM [inhibitor, partial curve, poor fit], CCCC(C(=O)Nc1cc(C)c(Cl)cc1OC)N1Cc2ccccc2C1=O (configuration not stated) 11.2 µM [inhibitor, partial curve, poor fit], CCOC(=O)C1=C(CNCc2ccc(Cl)cc2)NC(=O)NC1c1ccccc1 (configuration not stated) 15.8 µM [inhibitor, single point], COc1ccc(NC(=O)c2ccco2)cc1NC(=O)c1ccc(OC(C)C)cc1 11.2 µM [inhibitor, single point], CCCc1nc2c3ccccc3ccn2c1Cc1ccccc1 11.2 µM [inhibitor, single point], N#C/C(=C\c1ccc(O)c(O)c1)C(=O)NCCc1ccccc1 28.2 µM [inhibitor, single point], O=C(NCCCN1CCCC1)c1ccc(CSCc2cccc(Cl)c2)o1 20 µM [inhibitor, partial curve, poor fit], O=C(NCc1nc2ccccc2[nH]1)C1=C[C@@H](c2csc3ccccc23)C[C@@H](OCCCCO)O1 28.2 µM [inhibitor, single point], N#CC1(C#N)CC(C=O)=C(N)C1(C#N)CC(=O)C12CC3CC(CC(C3)C1)C2 (configuration not stated) 7.94 µM [inhibitor, partial curve, poor fit], COc1ccc2c(c1)c(=O)c(C(=O)c1ccc(C)cc1)cn2CC(=O)Nc1ccc(F)cc1 10 µM [inhibitor, single point], Cc1ccc(OC(F)F)c(NC(=O)Nc2cccc(C(F)(F)F)c2)c1 3.98 µM [inhibitor, full curve, poor fit], CCCOc1ccc(F)cc1-c1cc(C(=O)NCc2cccc(Cl)c2)[nH]n1 12.6 µM [inhibitor, partial curve, poor fit], Cc1cc(C)cc(OC(C)C(=O)Nc2nc3c(s2)CCCC3)c1 (configuration not stated) 12.6 µM [inhibitor, partial curve, poor fit], NC(=O)CC(NC(=O)Cc1ccc(Br)cc1)c1ccc(NCc2cc(F)ccc2F)c([N+](=O)[O-])c1 (configuration not stated) 28.2 µM [inhibitor, single point], O=C(COc1ccc2cc(Br)ccc2c1)N1CCOCC1 31.6 µM [inhibitor, single point], O=C(Nc1cccc([N+](=O)[O-])c1)C1CCN(C(=O)Cc2ccccc2)CC1 2.82 µM [inhibitor, partial curve, poor fit], COc1ccc(NS(=O)(=O)c2cc(-c3cnc(C4CC4)o3)ccc2C)cc1 0.891 µM [inhibitor, full curve, poor fit], CCOC(=O)c1ccc(NC(=S)Nc2ccccc2)cc1 28.2 µM [inhibitor, single point], Cc1c(NC(=O)COc2cccc(Br)c2)c(=O)n(-c2ccccc2)n1C 28.2 µM [inhibitor, single point], COc1cc(C)ccc1N(CCCN1C(=O)c2cccc3cccc(c23)C1=O)C(=O)c1cccs1 11.2 µM [inhibitor, single point], O=C(c1ccc(Cl)cc1)N1CCN(S(=O)(=O)/C=C/c2ccccc2)CC1 12.6 µM [inhibitor, single point], CC(C)c1ccc(N(CC(=O)NCC2CCCO2)C(=O)Cn2nnc(-c3cccs3)n2)cc1 (configuration not stated) 12.6 µM [inhibitor, single point], O=C(c1ccc(Cl)c([N+](=O)[O-])c1)N(Cc1ccc(Cl)cc1)C1CCS(=O)(=O)C1 (configuration not stated) 2 µM [inhibitor, partial curve, poor fit], CCCc1ccc2oc(C(=O)NCCc3nc(C(=O)OCC)cs3)c(C)c2c1 20 µM [inhibitor, single point], Cc1ccccc1C(=O)c1cccn1CC(=O)NCCCc1ccccc1 25.1 µM [inhibitor, single point], N#CCOc1nc(N2CCCCC2)nc(N2CCCCC2)n1 28.2 µM [inhibitor, single point], O=C(NC1CC1)C1Nc2ccc(OC(F)(F)F)cc2C2C=CCC12 (configuration not stated) 8.91 µM [inhibitor, partial curve, poor fit], Nc1nonc1-n1nnc(C(=O)N/N=C/c2ccc3c(c2)OCO3)c1-c1ccccc1 31.6 µM [inhibitor, single point], CCNC(=O)C1(C)CCCN(C(=O)c2ccc3ccccc3n2)C1 (configuration not stated) 12.6 µM [inhibitor, single point], CCOc1ccc(Cl)cc1CSc1n[nH]c(C)n1 28.2 µM [inhibitor, single point], O=C(c1cccc(S(=O)(=O)N2CCc3ccccc32)c1)N1CCCC(C(F)(F)F)C1 (configuration not stated) 20 µM [inhibitor, single point], Cc1ccc(NC(=O)c2nc[nH]c2C(=O)N[C@@H](CCCCNC(=O)OC(C)(C)C)C(=O)OC(C)(C)C)cc1 20 µM [inhibitor, single point], Cc1ccc(C)c(NS(=O)(=O)c2ccc3c(c2)CCCN3C(=O)C2CCC2)c1 11.2 µM [inhibitor, partial curve, poor fit], N#Cc1ccsc1NC(=O)CCN1CCN(C(c2ccccc2)c2ccccc2)CC1 3.55 µM [inhibitor, full curve], CC(=O)Nc1nc(C)c(-c2csc(Nc3cccc([N+](=O)[O-])c3)n2)s1 28.2 µM [inhibitor, single point], COc1cc([N+](=O)[O-])ccc1N=Nc1c(N)[nH]n(-c2ccccc2)c1=O 28.2 µM [inhibitor, single point], CCOc1ccc(NC(=S)NCc2ccc3[nH]c(C)cc3c2)cc1 8.91 µM [inhibitor, partial curve, poor fit], CC(Sc1ncnc2ccccc12)C(=O)Nc1ccc2c(c1)OCCO2 (configuration not stated) 28.2 µM [inhibitor, single point]

Potency, active:
O=C(O)c1ccc(N/N=C/c2c[nH]c3ccccc23)cc1 5.62 µM, O=C(NC1(C(F)(F)F)N=C(c2ccccc2)N(C2CCCCC2)C1=O)c1ccccc1F (configuration not stated) 11.2 µM, CCN(c1ccccc1)S(=O)(=O)c1ccc(OC)c(NC(=O)Cc2ccccc2OC)c1 10 µM
